This is an account of results in PubChem BioAssay AID1346428 (National Center for Advancing Translational Sciences (NCATS), 2018).

SMILES strings stand for the structures. Several values for one entry are separate records, joined by “and”; a condition that tells them apart may be missing. Equal entries are not always repeated. The campaign covered roughly 48,000 compounds. About 1,200 (2.5%) were called active. Another 2% or so got no clear call; they are omitted.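 How the source made its calls: active means activation of at least 60% and not above a set upper limit (about 1 call in 100 departs from these limits); inconclusive means activation of 40% to 60%, or above that upper limit; inactive means activation under 40%.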 The list shows a part of the results.

Chain of UniProt O75388 (O75388 whole entry, looked up, the tested form may be a part): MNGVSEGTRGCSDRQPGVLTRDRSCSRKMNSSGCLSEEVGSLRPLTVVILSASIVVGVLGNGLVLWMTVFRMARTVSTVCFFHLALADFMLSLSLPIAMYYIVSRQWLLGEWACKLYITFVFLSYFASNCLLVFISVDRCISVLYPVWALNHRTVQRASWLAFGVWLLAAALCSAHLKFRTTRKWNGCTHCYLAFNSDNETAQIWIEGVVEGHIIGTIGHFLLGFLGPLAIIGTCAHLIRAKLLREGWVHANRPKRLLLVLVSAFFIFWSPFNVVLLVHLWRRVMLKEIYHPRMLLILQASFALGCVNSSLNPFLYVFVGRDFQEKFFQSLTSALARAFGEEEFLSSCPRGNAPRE

The target of the experiment is Probable G-protein coupled receptor 32 (Homo sapiens) (UniProt O75388). Description: qHTS for Agonists of Human Resolvin D1 Receptor DRV1. Further: 0% is about no effect. Particulars: CHO-K1 GPR32 beta-arrestin PathHunter luminescence, 90 min; at 76.9 µM; active compounds read high; zero percent set by DMSO-only wells. Summed up:
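Agonism was scored by beta-Gal fragment complementation (chemiluminescent read, 1 h detection at ambient temperature) reporting beta-arrestin binding to GPR32 in engineered CHO-K1 cells. Compound treatment lasted 90 min at 37 C, normalized to a DMSO basal control.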
For `Cc1ccc(Nc2cc(C)c(C#N)c3nc4ccccc4n23)c(C)c1`, the activation was inactive: -1.04%.

In the case of `Cc1c(Cl)cccc1NC(=O)C1CCN(c2nc3ccccc3[nH]2)CC1`, the activation was inactive: -7.02%.

In the case of `Cc1cccc(-n2nc(C)c(C(=O)N3CCN(c4ccccc4)CC3)c2-n2cccc2)c1`, the activation is inactive: -11.7%.

Regarding `CS(=O)(=O)N(Cc1ccccc1)c1ccc(C(=O)Nc2ccc(Cl)cc2)cc1`, the activation was inactive: 13.1%.

On to `Cn1c([N+](=O)[O-])cnc1COC(N)=O`, for which the activation was inactive: -3.59%.

With `Cc1ccc(C)c(N2CCN(C(=O)C(CC(C)C)NS(=O)(=O)c3ccc4nc(C)sc4c3)CC2)c1` (centres undefined), the activation was inactive: -18.2%.

On to `COc1ccccc1C(=O)Nc1ccc(S(=O)(=O)Nc2ncccn2)cc1`, for which the activation is inactive: 4.76%.

In the case of `Cc1cc(F)ccc1NC(=O)CCn1nc(C)c(S(=O)(=O)N2CCCCC2)c1C`, the activation is inactive: -9.2%.

As to `COc1ccc(Cl)cc1NC(=O)c1cc(S(=O)(=O)N(C)Cc2ccccc2)ccc1F`, the activation is inactive: -6%.

With `CCOc1ccc(-c2cc(C(=O)NCCc3ccc(OC)c(OC)c3)c3c(-c4ccc(F)cc4)[nH]nc3n2)cc1`, the activation is inactive: -2.25%.

With `COc1cccc(-c2nc(SCC(=O)Nc3ccc4c(c3)OCCO4)c(-c3ccc(C)cc3)[nH]2)c1`, the activation was inactive: -26.9%.

On to `COc1ccccc1CN(Cc1c(Cl)cccc1Cl)S(=O)(=O)c1ccc(Br)cc1`, for which the activation was inactive: -15.8%.

As for `Cn1c(=O)[nH]c(=O)c2c1nc(CN1CCN(c3ccccc3F)CC1)n2Cc1ccc(F)cc1`, the activation is inactive: -26.7%.

Regarding `Cc1cccc(OCCCn2c(CCNC(=O)C3CCCCC3)nc3ccccc32)c1`, the activation was inactive: 17.9%.

As for `CCOC(=O)c1cnc2c(C)cccc2c1Nc1ccc(OC(C)C)cc1`, the activation was inactive: -1.46%.

In the case of `Cc1ccc(C)c(N2CCN(c3nc4ccc(C(=O)c5ccccc5)cc4n4cnnc34)CC2)c1`, the activation was inactive: -12.2%.

`O=C(NCCc1ccc(Cl)cc1)c1ccc(CSCc2cccc(Cl)c2)o1`: the activation was inactive: -5.03%.

Take `Cn1cc(S(=O)(=O)c2cccc(Cl)c2)c(=O)c2cc(F)c(N3CCCCC3)cc21`: the activation was inactive: -2.64%.

On to `Cc1ccc(Cl)cc1NC(=O)c1oc2ccc(S(=O)(=O)N3CCCCCC3)cc2c1C`, for which the activation is inactive: -0.142%.

As to `Cc1cc(C)cc(OCC(=O)N2CCC(c3nc4ccccc4s3)CC2)c1`, the activation is inactive: 25%.

`CCc1cccc(C)c1NC(=O)CSc1nc2c(c(=O)[nH]1)CCC2`: the activation is inactive: -8.1%.

For `CCCN1C(=O)C(Cc2nc3ccccc3c(=O)n2-c2ccc(OC)cc2)c2cc(C)ccc21` (centres undefined), the activation is inactive: -5.22%.

As for `CCOc1ccc(NS(=O)(=O)c2ccc3[nH]c4c(c3c2)CCCC4)cc1`, the activation is inactive: 48.6%.

In the case of `Cc1cccc(N(C)S(=O)(=O)c2cc3c(cc2Cl)NC(=O)CO3)c1`, the activation was inactive: -3.66%.

Regarding `Cc1nn2c(=O)cc(COC(=O)c3cccc(NC(=O)c4cccs4)c3)nc2s1`, the activation was inactive: 5.04%.

In the case of `COc1ccc2nc(N(Cc3cccnc3)C(=O)c3ccc4c(c3)OCCO4)sc2c1`, the activation is inactive: -11.7%.

For the molecule `COc1ccc(N(CC(=O)N2CCN(c3cccc(C)c3C)CC2)S(=O)(=O)c2c(C)noc2C)cc1`, the activation is inactive: -38.5%.

As to `COc1ccc(-c2cn3nc(N4CCC(C(=O)Nc5cccc(C)c5C)CC4)sc3n2)cc1`, the activation is inactive: 9.22%.

On to `Cc1ccc(CNS(=O)(=O)c2ccc3c(c2)CCN3S(C)(=O)=O)cc1`, for which the activation was inactive: 14.3%.

As to `Cc1c(Cl)cccc1NC(=O)CSc1nc(=O)n(Cc2ccccn2)c2c1CCC2`, the activation is inactive: -3.96%.

As to `CCCSc1ncc(Cl)c(C(=O)Nc2sc3c(c2C(=O)NCCOC)CCCC3)n1`, the activation was inactive: -15%.

As to `CCCCOC(=O)c1ccc(NC(=O)c2cc3c(=O)n4cccc(C)c4nc3n2C)cc1`, the activation was inactive: -13.6%.

With `O=C(Nc1ccc(F)cc1F)c1cc(-c2ccccc2O)no1`, the activation was inactive: 3.61%.

Regarding `Cc1ccc(NC(=O)Cn2c(=O)n(CCCCC(=O)NCCc3ccccc3)c(=O)c3ccccc32)c(C)c1`, the activation is inactive: 6.67%.

Regarding `Cc1nn2c(=O)cc(COC(=O)c3ccc(NC(=O)C4CCCCC4)cc3)nc2s1`, the activation is inactive: 14.2%.

As for `O=C(COc1ccccc1Cl)Nc1ccc2oc(-c3ccccc3F)nc2c1`, the activation is inactive: -7.56%.

For `COCCNC(=O)CCCn1c(=O)c2cc(OC)c(OC)cc2n(CC(=O)Nc2ccc(F)cc2)c1=O`, the activation was inactive: 2.12%.

With `Cc1ccc(NC(=O)C(NS(=O)(=O)c2ccc3c(c2)CCC(=O)N3)c2ccccc2)cc1C` (centres undefined), the activation is inactive: 15.3%.

Take `CCOC(=O)C1CCN(CCC(=O)Nc2ccc(Br)c(C)c2)CC1`: the activation is inactive: 7.06%.

Turning to `O=C(CSc1nc(=O)[nH]c2c1CCCC2)Nc1ccccc1C(F)(F)F`, the activation was inactive: -13.3%.

As for `CCOc1ccc(CNC(=O)c2ccc(-c3nc(CS(=O)(=O)c4ccccc4)c(C)o3)cc2)cc1`, the activation is inactive: -0.113%.

With `Cc1ccc(C)c(NC(=O)CN2C(=O)COc3ccc(Cl)cc32)c1`, the activation was inactive: 0.704%.

Turning to `O=C(Nc1c(C(=O)Nc2ccc(F)cc2)oc2ccccc12)c1ccccc1F`, the activation was inactive: -12.5%.

Regarding `CCCCNC(=O)NS(=O)(=O)c1ccc(C)cc1`, the activation was inactive: -0.0347% and inactive: -5.22%.

Take `Cn1c(=O)nc2n(-c3ccc(Cl)c(Cl)c3)c3cc(Cl)ccc3cc-2c1=O`: the activation was inactive: -7.96%.

`CC1=C(C(=O)OCC2CCCCC2)C(c2ccccc2F)CC(=O)N1` (centres undefined): the activation was inactive: 39.3%.

Consider `COc1ccccc1CNC(=O)C1CCCN(c2nnc(-n3c(C)ccc3C)s2)C1` (centres undefined), for which the activation was inactive: 15.2%.

As to `Cc1cc(O)cc2c1O[C@](C)(CCC[C@H](C)CCC[C@H](C)CCCC(C)C)CC2`, the activation was inactive: -4.96%.

For the molecule `Cc1ccccc1CNS(=O)(=O)c1csc(C(N)=O)c1`, the activation is inactive: 11%.

Regarding `Cc1nc2nc(SCC(=O)NCCc3ccccc3)nn2c(C)c1Cc1c(F)cccc1Cl`, the activation is inactive: -8.47%.

Take `COc1ccc(C(=O)N(Cc2ccc(C(C)C)cc2)C2CCS(=O)(=O)C2)cc1` (centres undefined): the activation is inactive: -15.4%.

`Cc1ccc(C(C)C)c(OCC(=O)N2CCC(c3nc4ccccc4o3)CC2)c1`: the activation was inactive: -18.4%.

As to `CCOc1ccccc1C(=O)Nc1ccc2c(c1)N(C)C(=O)c1ccccc1S2`, the activation was inactive: 19.6%.

In the case of `CCn1c(SCCOc2ccccc2F)nc2ccccc21`, the activation was inactive: -4.98%.

For the molecule `Cc1c(C2=CCN(S(=O)(=O)c3ccc(CC(C)C)cc3)CC2)c2ccccc2n1CC(=O)N1CCCC1`, the activation was inactive: -10.5%.

For the molecule `Cc1nn(-c2ccc(N3CCOCC3)nn2)c(C)c1CCC(=O)NCc1ccc(OC(C)C)cc1`, the activation was inactive: 0%.

In the case of `Cc1ccc(CNC(=O)Cc2coc3cc(C)cc(C)c23)cc1`, the activation was inactive: 5.97%.

Take `Cc1ccc(NC(=O)Nc2nnc(N3CCCC3)s2)c(C)c1`: the activation is inactive: 2.59%.

On to `CCCCN(C)C(=O)C1CCCN(c2ncnc3onc(-c4ccc(F)cc4)c23)C1` (centres undefined), for which the activation was inactive: -11.8%.

`Cc1cccc(N2CCN(C(=O)CSCc3ccc(F)cc3)CC2)c1C`: the activation was inactive: -18.6%.

For `COc1ccc(CNC(=O)CCC(=O)N2CC3CCCN3c3ccccc32)cc1` (centres undefined), the activation is inactive: -32%.

In the case of `COc1ccccc1CNC(=O)c1ccc(CS(=O)(=O)c2ccccc2C)o1`, the activation is inactive: 17%.

On to `O=C(NCc1ccccc1)c1ccc(NC(=O)c2nsc3ccccc23)cc1`, for which the activation was inactive: -15.3%.

For `CCOc1cccc(CC(=O)Nc2ccc3nc(N4CCCCC4)cc(C)c3c2)c1OCC`, the activation is inactive: -18.4%.

For `CCCNC(=O)c1ccc(-n2c(-c3ccccc3)cc3c2CCCCC3)cc1`, the activation is inactive: -35.3%.

As for `COc1cc(CN(CC2CCCO2)C(=O)c2ccc(F)cc2)cc(OC)c1OC` (centres undefined), the activation was inactive: -17.4%.

For `CC(=O)N1CCCc2cc(S(=O)(=O)N3CCC(C(=O)NCc4ccc(N(C)C)cc4)CC3)ccc21`, the activation is inactive: 3.08%.

For `Cc1ccccc1-c1noc(C(C)NC(=O)c2ccco2)n1` (centres undefined), the activation is inactive: 15.9%.

Take `CCC(=O)N1CCc2cc(S(=O)(=O)NCCC(=O)NCc3ccccc3Cl)ccc21`: the activation is inactive: 4.11%.

`COc1ccccc1CNC(=O)C(CC(C)C)NS(=O)(=O)c1ccc2c(c1)oc(=O)n2C` (centres undefined): the activation is inactive: -2.42%.

As to `Cn1c(=NC(=O)c2ccc3c(c2)OCCO3)sc2cc(S(C)(=O)=O)ccc21`, the activation is inactive: 2.97%.

`Cc1cc(Br)ccc1NC(=O)CCS(=O)(=O)c1cccc2nsnc12`: the activation is inactive: 15.9%.

As to `CC(=O)NCCNc1nc2c(S(=O)(=O)c3ccc(C)c(C)c3)nnn2c2ccc(Cl)cc12`, the activation is inactive: -16.4%.

On to `COC(=O)c1ccc(-n2nnc(-c3nc(-c4ccc5c(c4)OCO5)no3)c2C)cc1`, for which the activation was inactive: 3.92%.

Turning to `CC(C)c1nc2ccc(C(=O)NCCCN3CCN(c4ccccc4F)CC3)cc2o1`, the activation is inactive: -8.08%.

Turning to `CCN(C(=O)CN(C)S(=O)(=O)c1ccc2c(c1)c(=O)n(C)c(=O)n2C)c1ccc(OC)cc1`, the activation is inactive: 14.6%.

Take `CCOC(=O)c1ccc(NC(=O)C2CCCN(c3ccc(Sc4ccc(C)cc4)nn3)C2)cc1` (centres undefined): the activation was inactive: -8.64%.

Turning to `Cc1ccc(C2c3c(oc4ccccc4c3=O)C(=O)N2c2ccc(C)cn2)cc1` (centres undefined), the activation was inactive: -9.62%.

For `CCOc1ccc2nc(NC(=O)CS(=O)(=O)c3ccc(Cl)cc3)sc2c1`, the activation was inactive: 23.8%.

As to `N#Cc1ccc(CN2C(=O)c3ccccc3Sc3ccc(C(=O)OCc4ccco4)cc32)cc1`, the activation is inactive: -0.811%.

`COc1ccc(Nc2cc(C(=O)NC3CCCC3)c3ccccc3n2)c(OC)c1`: the activation is inactive: 22.6%.

`CCNC(=O)Cn1c(-c2cccs2)cc2ccccc21`: the activation was inactive: -18%.

With `Cc1ccc(CN(C(=O)Nc2cccc(Cl)c2)c2ccccn2)cc1`, the activation was inactive: 4.86%.

Regarding `COc1ccc(NC(=O)c2nnn(Cc3nc(-c4cc(Br)ccc4OC)oc3C)c2C)cc1`, the activation was inactive: 3.64%.
